Source: the supplement of paper PMC8183993
Counter-ions that a name gives are not always drawn. ± gives the standard deviation of the averaged measurements. In all, about 3,100 compounds were measured (“mean cytoplasmic OPP incorporation (global translation) relative to DMSO”: median about 100, lowest 2% from about 56 on). This is one part of the list.

test system: U2OS; assay: mean cytoplasmic OPP incorporation (global translation) relative to DMSO (% of DMSO); higher = more protein synthesis; settings: 10 µM; 24 h
Description: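 Primary image-based screen in U2OS cells: compounds at 10 uM for 24 h, then a 1 h o-propargyl-puromycin (OPP) pulse, click labelling, and high-throughput microscopy. Mean cytoplasmic OPP intensity and nuclei count were normalised to DMSO wells within each plate (DMSO = 100) and averaged over triplicate plates.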

Question: Which “mean cytoplasmic OPP incorporation” value does the source give for `Cc1nnc2n1-c1sc(CCC(=O)N3CCOCC3)cc1C(c1ccccc1Cl)=NC2` here?
Answer: The value was 100.

Question: With `c1ccc([C@@H]2C[C@H]2NC2CCNCC2)cc1` as the compound, how does the “mean cytoplasmic OPP incorporation” value read?
Answer: Its value is 99.8.

Question: For `CCC[C@@H]1CC2=CC(=O)CC[C@]2(C)[C@H]2CC[C@@]3(C)[C@@H](CC[C@@]3(O)CCC(=O)O)[C@H]12`, which “mean cytoplasmic OPP incorporation” value is on record?
Answer: Its value is 96.1.

Question: How did the “mean cytoplasmic OPP incorporation” value turn out when `CCOC(=O)c1ncn2c1CN(C)C(=O)c1cc(N=[N+]=[N-])ccc1-2` was run?
Answer: The value was 91.9.

Question: `CCCN1CCO[C@@H]2c3cc(O)ccc3OC[C@H]21` was tested. Which “mean cytoplasmic OPP incorporation” value did it give?
Answer: Its value is 97.1.

Question: Which “mean cytoplasmic OPP incorporation” value does the source give for `C[C@]12COC(=O)C[C@@H]1CC[C@@H]1[C@@H]2CC[C@@]2(C)[C@H]1CC[C@]2(C)O` [Oxandrolone] here?
Answer: Its value is 101.

Question: `O=P1(N(CCCl)CCCl)NCCCO1` (stereo not given) [Cyclophosphamide] was tested. Which “mean cytoplasmic OPP incorporation” value did it give?
Answer: The value was 99.

Question: For `CCCN[C@@H]1CCc2c(OC)cccc2[C@@H]1C` [(+)-AJ 76 hydrochloride], which “mean cytoplasmic OPP incorporation” value is on record?
Answer: Its value is 107.

Question: With `CN1C(=O)CCS(=O)(=O)C1c1ccc(Cl)cc1` (stereo not given) [Chlormezanone] as the compound, how does the “mean cytoplasmic OPP incorporation” value read?
Answer: Its value is 103 ± 3.1.

Question: With `Cn1c2c(c3ccccc31)CCNCC2` as the compound, how does the “mean cytoplasmic OPP incorporation” value read?
Answer: The value was 97.4.

Question: For `CC(=O)[C@H]1CC[C@H]2[C@@H]3CC[C@H]4C[C@H](O)CC[C@]4(C)[C@H]3C(=O)C[C@]12C` [Alfaxalone], which “mean cytoplasmic OPP incorporation” value is on record?
Answer: Its value is 102.

Question: How did the “mean cytoplasmic OPP incorporation” value turn out when `C=C1C[C@@H]2[C@H](CC[C@]3(C)C(=O)CC[C@@H]23)[C@@]2(C)C=CC(=O)C=C12` [Exemestane] was run?
Answer: The value was 87.62 ± 0.59.

Question: How did the “mean cytoplasmic OPP incorporation” value turn out when `CC1=NN=C(c2ccc(N)cc2)c2cc3c(cc2C1)OCO3` was run?
Answer: Its value is 110.

Question: How did the “mean cytoplasmic OPP incorporation” value turn out when `C[C@H]1CNCCc2ccc(Cl)cc21` [Lorcaserin HCl] was run?
Answer: Its value is 99.4.

Question: Which “mean cytoplasmic OPP incorporation” value does the source give for `C/C(O)=C(\C#N)C(=O)Nc1cc(Br)ccc1Br` here?
Answer: Its value is 90.7.

Question: For `Cc1ccccc1-n1c(Cn2ncc3c(N)ncnc32)nc2cccc(C)c2c1=O`, which “mean cytoplasmic OPP incorporation” value is on record?
Answer: The value was 104.

Question: With `CCC1(C)CC(=O)NC(=O)C1` [Bemegride] as the compound, how does the “mean cytoplasmic OPP incorporation” value read?
Answer: The value was 102.

Question: Which “mean cytoplasmic OPP incorporation” value does the source give for `C[C@@]12C(=O)OC(=O)[C@]1(C)[C@H]1CC[C@@H]2O1` [Cantharidin] here?
Answer: Its value is 93.1 ± 5.2.

Question: `CCCC(C)(COC(N)=O)COC(=O)NC(C)C` (stereo not given) [Carisoprodol] was tested. Which “mean cytoplasmic OPP incorporation” value did it give?
Answer: The value was 97.1.

Question: For `Cc1ccc2c(c1)C1(CCN(CCc3nc(-c4ccccc4)oc3C)CC1)OC(=O)N2`, which “mean cytoplasmic OPP incorporation” value is on record?
Answer: Its value is 93.4.

Question: How did the “mean cytoplasmic OPP incorporation” value turn out when `C[C@]12CCC(=O)C=C1CC[C@@H]1[C@@H]2CC[C@]2(C)C(=O)CC[C@@H]12` [Androstenedione] was run?
Answer: Its value is 97.

Question: How did the “mean cytoplasmic OPP incorporation” value turn out when `OC(c1ccccc1)(c1ccccc1)C1CCNCC1` [Azacyclonol] was run?
Answer: The value was 96.

Question: `N[C@@H]1C[C@H]1c1ccccc1.N[C@H]1C[C@@H]1c1ccccc1` [Tranylcypromine hemisulfate] was tested. Which “mean cytoplasmic OPP incorporation” value did it give?
Answer: The value was 120.

Question: Which “mean cytoplasmic OPP incorporation” value does the source give for `N=C(NCc1ccc(Cl)cc1)SCCCc1c[nH]cn1` [Clobenpropit dihydrobromide] here?
Answer: The value was 95.4.

Question: With `COc1cc(OC)c(OC)cc1C=O` [Asaraldehyde (Asaronaldehyde)] as the compound, how does the “mean cytoplasmic OPP incorporation” value read?
Answer: The value was 99.3.
